US20190083612A1 (RINAT NEUROSCIENCE, published 2019)

Key:
[1] = biological target: cynomolgus monkey-PD-1 (His-tagged monomer) (cynomolgus monkey, UniProt B0LAJ3 25-170); assay: SPR (ProteOn NLC chip), 37 C, n 8
[2] = biological target: T1, mouse-PD-1 (recombinant purified, Example 12) (mouse, UniProt Q02242 25-167, limits assumed); assay: SPR (ProteOn NLC chip), 25 C, n 5
T1 sequence (looked up): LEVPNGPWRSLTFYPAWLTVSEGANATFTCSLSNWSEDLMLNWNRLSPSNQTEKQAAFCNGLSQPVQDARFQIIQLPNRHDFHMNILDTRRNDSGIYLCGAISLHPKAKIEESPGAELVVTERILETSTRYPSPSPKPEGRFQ

[3] = biological target: T2, human PD-1 on stably transfected Jurkat cells (human, UniProt Q15116 25-288); assay: FACS, blockade of biotinylated hu-PD-L2 (20 µg/mL) on human-PD-1/Jurkat, repeat 1
T2 construct: also called Jurkat/Human-PD-1; Human-PD-1/Jurkat

[4] = biological target: T3, human PD-1 (hPD-1) monomer (human, UniProt Q15116 part only); assay: SPR (Biacore T200), hPD-1 monomer over anti-hFc-captured hIgG4, 37 C
T3 construct: also called hu-PD-1; not shown: His tag (His-tagged monomer)
Protocol: The hPD-1 was injected at active concentrations of 0, 10, and 100 nM for three minutes allowing an 18-min dissociation phase. The capture surfaces were regenerated with 75 mM phosphoric acid after each binding cycle.

[5] = biological target: T4, cynomolgus monkey PD-1 on primary cynomolgus monkey T cells (cynomolgus monkey, UniProt B0LAJ3 25-288); assay: FACS, activated primary cynomolgus monkey T cells, individual 1
T4 construct: also called PD-1 on cyno T cells

[6] = biological target: T5, rat PD-1 on primary rat T cells (rat, UniProt D3ZIN8 25-287); assay: flow cytometry, activated primary T cells
T5 sequence: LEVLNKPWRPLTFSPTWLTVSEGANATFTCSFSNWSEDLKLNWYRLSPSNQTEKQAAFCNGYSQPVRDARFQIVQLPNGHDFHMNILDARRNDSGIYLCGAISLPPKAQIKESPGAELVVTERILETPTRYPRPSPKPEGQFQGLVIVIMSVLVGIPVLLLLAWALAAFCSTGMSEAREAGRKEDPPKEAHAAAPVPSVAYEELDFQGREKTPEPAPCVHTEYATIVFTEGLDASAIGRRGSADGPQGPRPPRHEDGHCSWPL

[7] = biological target: T6, cynomolgus monkey PD-1 on stably transfected Jurkat cells (cynomolgus monkey); assay: FACS, blockade of cyno PD-L2 (20 µg/mL) on cyno-PD-1/Jurkat, repeat 2
T6 construct: whole, on cells; also called Jurkat/Cynomolgus Monkey-PD-1; Cynomolgus Monkey-PD-1/Jurkat

[8] = biological target: T6, cynomolgus monkey PD-1 on stably …; assay: FACS, blockade of cyno PD-L1 (20 µg/mL) on cyno-PD-1/Jurkat, repeat 2
[9] = biological target: T3, human PD-1 (hPD-1) monomer; assay: SPR (ProteOn NLC chip), 25 C, n 10
T3 sequence (Q15116 25-167 limits assumed): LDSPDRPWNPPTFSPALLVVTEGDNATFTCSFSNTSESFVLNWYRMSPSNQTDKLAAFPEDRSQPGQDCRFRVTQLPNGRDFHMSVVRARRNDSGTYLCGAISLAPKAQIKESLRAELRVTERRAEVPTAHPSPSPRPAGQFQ

[10] = biological target: T4, cynomolgus monkey PD-1 on primary …; assay: flow cytometry on primary cynomolgus monkey T cells activated with a non-human primate T cell activation/expansion kit; APC-labelled anti-human IgG F(ab')2 secondary; geometric mean of fluorescence
[11] = biological target: T2, human PD-1 on stably transfected Jurkat …; assay: FACS, Jurkat/human-PD-1, average ± sem
[12] = biological target: T3, human PD-1 (hPD-1) monomer; assay: KinExA in solution, 23 C, mAb titrated; 95% confidence interval (28-18), n 3
[13] = biological target: T7, hu-FCGRI (hu-CD64) (human, UniProt P12314 16-288, limits assumed); assay: SPR (ProteOn NLC chip), 25 C, pH 7.4
T7 construct: also called human Fc gamma receptor I
T7 sequence (P12314 16-288 limits assumed): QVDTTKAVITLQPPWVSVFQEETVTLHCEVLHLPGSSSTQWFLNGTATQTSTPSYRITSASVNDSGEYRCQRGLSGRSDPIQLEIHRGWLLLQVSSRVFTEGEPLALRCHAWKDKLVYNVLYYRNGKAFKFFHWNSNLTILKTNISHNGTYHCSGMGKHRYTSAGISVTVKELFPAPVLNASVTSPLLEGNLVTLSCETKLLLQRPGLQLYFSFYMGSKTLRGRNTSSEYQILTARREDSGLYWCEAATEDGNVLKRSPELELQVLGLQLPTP

[14] = biological target: hu-FCGRIIIa (hu-CD16a) 158V (human, UniProt P08637 part only, limits assumed); assay: SPR (ProteOn NLC chip), 25 C, pH 7.4
UniProt P08637, sequence (P08637 17-208 F176V limits assumed): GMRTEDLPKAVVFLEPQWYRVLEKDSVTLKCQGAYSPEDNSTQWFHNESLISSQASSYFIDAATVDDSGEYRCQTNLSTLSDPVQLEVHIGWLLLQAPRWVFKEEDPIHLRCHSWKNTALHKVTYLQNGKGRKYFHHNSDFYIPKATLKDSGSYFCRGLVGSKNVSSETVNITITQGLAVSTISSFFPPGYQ

[15] = biological target: T8, hu-FCGRIIb (hu-CD32b) (human, UniProt P31994 46-217); assay: SPR (ProteOn NLC chip), 25 C, pH 7.4
T8 sequence (looked up): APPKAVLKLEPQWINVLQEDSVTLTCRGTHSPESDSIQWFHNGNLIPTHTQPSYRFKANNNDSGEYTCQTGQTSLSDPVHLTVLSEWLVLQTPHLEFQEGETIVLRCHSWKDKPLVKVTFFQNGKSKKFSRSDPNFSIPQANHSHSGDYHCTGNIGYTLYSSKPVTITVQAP

[16] = biological target: T9, hu-FCGRIIa (hu-CD32a) 131R (human, UniProt P12318 36-218); assay: SPR (ProteOn NLC chip), 25 C, pH 7.4
T9 sequence (looked up): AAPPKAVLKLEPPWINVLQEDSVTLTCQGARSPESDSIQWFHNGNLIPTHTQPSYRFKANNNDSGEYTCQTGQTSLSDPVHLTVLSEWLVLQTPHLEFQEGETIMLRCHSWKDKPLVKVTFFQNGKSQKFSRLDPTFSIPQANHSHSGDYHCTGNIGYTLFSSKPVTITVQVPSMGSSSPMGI

[17] = biological target: Cynomolgus Monkey-FCGRIIIa 42R (cynomolgus monkey, UniProt Q8SPW2 17-208); assay: SPR (ProteOn NLC chip), 25 C, pH 7.4
UniProt Q8SPW2, sequence (Q8SPW2 17-208 limits assumed): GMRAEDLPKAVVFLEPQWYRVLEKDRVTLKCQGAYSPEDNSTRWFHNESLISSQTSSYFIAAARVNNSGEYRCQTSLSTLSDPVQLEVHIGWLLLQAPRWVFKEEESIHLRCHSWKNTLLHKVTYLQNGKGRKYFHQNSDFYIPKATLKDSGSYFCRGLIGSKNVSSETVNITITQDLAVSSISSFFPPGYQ

[18] = biological target: T3, human PD-1 (hPD-1) monomer; assay: KinExA in solution, 23 C, PD-1 titrated; 95% confidence interval (24-12)
[19] = biological target: T6, cynomolgus monkey PD-1 on stably …; assay: FACS, blockade of cyno PD-L2 on cyno-PD-1/Jurkat, average ± sem

B1: mAb7 (human IgG4 kappa, hinge stabilized) (antibody)
heavy: QVQLVQSGAEVKKPGASVKVSCKASGYTFTSYWINWVRQAPGQGLEWMGNIYPGSSLTNYNEKFKNRVTMTRDTSTSTVYMELSSLRSEDTAVYYCARLSTGTFAYWGQGTLVTVSSASTKGPSVFPLAPCSRSTSESTAALGCLVKDYFPEPVTVSWNSGALTSGVHTFPAVLQSSGLYSLSSVVTVPSSSLGTKTYTCNVDHKPSNTKVDKRV[human IgG4 Fc with S228P (EU numbers) skipped]
light: DIVMTQSPDSLAVSLGERATINCKSSQSLWDSGNQKNFLTWYQQKPGQPPKLLIYWTSYRESGVPDRFSGSGSGTDFTLTISSLQAEDVAVYYCQNDYFYPHTFGGGTKVEIKRGTVAAPSVFIFPPSDEQLKSGTASVVCLLNNFYPREAKVQWKVDNALQSGNSQESVTEQDSKDSTYSLSSTLTLSKADYEKHKVYACEVTHQGLSSPVTKSFNRGEC
notes: also called mAb7-G4; mAb7 (G4); copies: 2 + 2
- Kd [1]: 0.115 nM
- koff [1]: 0.000112 s⁻¹
- kon [1]: 980000 M⁻¹ s⁻¹
- Kd [2]: 900 nM
- koff [2]: 0.0052 s⁻¹
- kon [2]: 6000 M⁻¹ s⁻¹
- IC50 [3]: 0.703 nM
- Kd [4]: 0.85 nM
- koff [4]: 0.000363 s⁻¹
- kon [4]: 428000 M⁻¹ s⁻¹
- EC50 [5]: 0.0736 nM
- binding result [6]: no binding
- IC50 [7]: 0.928 nM
- IC50 [8]: 1.05 nM
- Kd [9]: 0.042 nM
- koff [9]: 1.8e-05 s⁻¹
- kon [9]: 420000 M⁻¹ s⁻¹
- EC50 (read off the curve) [10]: ~0.4 nM
- EC50 [11]: 0.0647 nM
- Kd [12]: 0.023 nM
- koff [13]: 0.0013 s⁻¹
- kon [13]: 9.1e+06 M⁻¹ s⁻¹
- binding result [14]: binds
- Kd [15]: 1100 nM
- Kd [16]: 800 nM
- Kd [17]: 2700 nM
- Kd [18]: 0.017 nM
- IC50 [19]: 0.839 nM
